# Measurements: PubChem BioAssay AID686978 (National Center for Advancing Translational Sciences (NCATS), 2013)
# Several values for one entry are separate records, joined by “and”; a condition that tells them apart may be missing. Identical values can stand only once. Hit rate of the full screen: of about 420,000 compounds, about 64,000 (15%) were called active. This list was built around the results that the source calls inconclusive (neither active nor inactive); the mix of calls is not that of the screen. Calls follow the shape of the dose curve; as a rule, active = well fitted inhibition curve with a large enough effect; inconclusive = small, poorly fitted or top-dose-only effect; inactive = flat fitted curve, though single readings scatter. Potencies of inconclusive entries are left out as doubtful fits.
# Test: qHTS for Inhibitors of human tyrosyl-DNA phosphodiesterase 1 (TDP1): qHTS in cells in absence of CPT; also: nearly all actives have a fitted effect of over 55% in size
# Details: DT40 Tdp1-/- hTDP1 cells, no CPT, ATP luminescence, 48 h; activity change, negative = growth inhibition: at 46.2 µM (top of the series) unless noted
# Procedure, shortened: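 Luminescent ATP content (CellTiter-Glo) served as the growth readout. Knockout chicken DT40 cells expressing human TDP1 were exposed to compounds without camptothecin for a minimum 48 hr at 37 °C.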
# % is scaled to controls: 0 for no effect and ±100 for the full control effect; potency is read from the fitted curve at half-maximal effect; tags tell the direction and shape of the fitted curve.
SMILES,Potency,"activity change, negative = growth inhibition"
N#Cc1cc(Nc2c(N)nc[nH]c2=O)c([N+](=O)[O-])cc1C#N,"inconclusive [inhibitor, single point]",–
Cc1ccnc(N2CCC(C(=O)Nc3ccc(Oc4ccccc4)cc3)CC2)n1,"inconclusive [inhibitor, full curve, poor fit]",–
Cc1ncc2c(c1O)COP(=O)(O)OC2,–,inactive: -16.7%
Nc1ncn([C@H]2C[C@H](O)[C@@H](CO)O2)c(=O)n1,active: 266 nM and active: 103 nM,–
CCOc1nc(C#N)nc(N2CCCCC2)n1,active: 11.2 µM and active: 14.6 µM,–
Cc1ccc(S(=O)(=O)/N=C2\C=C(Nc3ccc(O)cc3)C(=O)c3ccccc32)cc1,active: 2.91 µM,–
Cc1ccc(-n2nc3c(=O)n(CC(=O)NCCC(C)C)nc(C)c3c2C)cc1,–,inactive: 2.85%
COc1cc2c(cc1OC)C(=O)N1[C@H]3c4ccccc4OC[C@@H]3[C@H](c3ccccc3)[C@]1(C)C(=O)N2,active: 14.6 µM,–
Cc1cc(Br)cn2c(Cc3ccccc3)c(-c3ccc(F)cc3)nc12,"inconclusive [inhibitor, single point]",–
COc1ccc(/C=C/C(=O)CC(=O)/C=C/c2cccc(O)c2OC)cc1O,active: 2.97 µM,–
CCn1c2ccccc2c2cc(NS(=O)(=O)c3ccccc3C)ccc21,active: 20.6 µM,–
O=C(COc1ccccc1)N/N=C/c1ccc2c(c1)OCO2,–,inactive: -35.9%
CC1=C(C(=O)N2CCOCC2)CC(CC(=O)NC2CCCCC2)C(=O)N1Cc1ccc(F)cc1 (stereo unspecified),–,inactive: -6.08%
NCCCCNCCCN,"inconclusive [inhibitor, single point]",–
Cc1cccc(NC(=O)CCC(=O)N/N=C/c2cc([N+](=O)[O-])ccc2O)c1,"inconclusive [inhibitor, single point]",–
CC1(Cc2ccc(F)cc2)C(=O)Nc2c(Cl)cccc21 (stereo unspecified),–,inactive: -26.6%
COc1cccc(CC(=O)N2CCCC(CCC(=O)N3CCN(c4ccccn4)CC3)C2)c1 (stereo unspecified),"inconclusive [inhibitor, single point]",–
CCCCN(C(=O)c1cccc(S(=O)(=O)N(CC)c2ccccc2)c1)c1c(N)n(CCCC)c(=O)[nH]c1=O,–,inactive: 1.18%
Cc1cccn2c(=O)c(C(=O)NCCc3ccccc3)cnc12,"inconclusive [inhibitor, single point]",–
CCC(=O)Nc1ccccc1Oc1ccccc1,"inconclusive [inhibitor, partial curve]",–
COc1ccc(NC(=O)CCCn2c(=O)c3sccc3n(Cc3cccc(C)c3)c2=O)cc1,"inconclusive [inhibitor, single point]",–
Cc1ccccc1NC(=S)NNC(=O)c1ccoc1C,–,inactive: -9.64%
CC(=NNC(=O)CCC(=O)Nc1ccccc1Cl)c1ccco1,–,inactive: -2.99%
Nc1ccccc1OCCOc1ccccc1N,–,inactive: -2.33%
CN(C)S(=O)(=O)c1cccc(NC(=S)NCc2ccc3c(c2)OCO3)c1,"inconclusive [inhibitor, partial curve]",–
CC(C)c1ccccc1N1CC(C(=O)O)CC1=O (stereo unspecified),–,inactive: -1.77%

SMILES,Potency,"activity change, negative = growth inhibition"
CC1(C)CC(/C=C/c2ccccc2)=Nc2ccccc2N1,active: 20.6 µM,–
COc1cccc(NC(=O)CSc2nccn2C2CCCC2)c1,"inconclusive [inhibitor, single point]",–
O=C(Cn1cnc2ccccc2c1=O)NCCC(=O)Nc1ccccc1C(F)(F)F,–,inactive: -7.69%
COc1ccc(C(=O)Nc2cccc(C(=O)NCc3ccccc3)c2)cc1,"inconclusive [inhibitor, single point]",–
O=C(c1cccc(S(=O)(=O)N2CCOCC2)c1)N(Cc1ccc(F)cc1)Cc1ccco1,active: 18.4 µM,–
COc1ccc2[nH]cc(CCN3C(=O)c4ccc(C(=O)O)cc4C3=O)c2c1,–,inactive: -14.5%
C[C@@H](NC(=O)OC(C)(C)C)c1nnc(S(=O)(=O)Cc2ccccc2)o1,active: 1.03 µM,–
COc1ccc(CCNCC(O)COc2cccc(C(C)=O)c2)cc1OC (stereo unspecified),"inconclusive [inhibitor, partial curve, poor fit]",–
O=C(NC1CCCC1)c1ccc2c(c1)N(Cc1ccccc1)C(=O)c1ccccc1S2,"inconclusive [inhibitor, single point]",–
CC(C)(C)C(=O)/C=C(N)/C=C/c1ccccc1,–,inactive: -26.5%
CC1CCN(c2nc3ccc(C(=O)NCc4ccccc4Cl)cc3s2)CC1,active: 20.6 µM,–
COc1ccc(N2CC(C(=O)Nc3ccc(S(=O)(=O)Nc4nccs4)cc3)CC2=O)c(OC)c1 (stereo unspecified),–,inactive: -17%
CCOc1ccccc1NC(=O)/C=C/C(N)=O,active: 4.11 µM,–
CCN(C(=O)COC(=O)Cc1coc2cc(C)ccc12)c1c(N)n(Cc2ccccc2)c(=O)[nH]c1=O,"inconclusive [inhibitor, single point]",–
Cc1ccc(F)cc1NC(=O)Cn1c(C)cc(C)c(C#N)c1=O,–,inactive: 2.12%
CCN(C(=O)CCC(=O)N(CC)c1ccccc1)c1ccccc1,"inconclusive [inhibitor, single point]",–
CSc1ncccc1C(=O)OCC(=O)N(C)c1c(N)n(Cc2ccccc2)c(=O)[nH]c1=O,–,inactive: 0.1%
Cc1nn(C)cc1CNC(=O)c1ccc(F)cc1,–,inactive: -21%
Cc1ccccc1/C(N)=N/OC(=O)N1c2ccccc2Sc2ccccc21,active: 12.6 µM,–
COc1ccccc1CNC(=O)c1ccc(-c2ccccc2Cl)o1,"inconclusive [inhibitor, single point]",–
O=C(NNC(=O)c1cc([N+](=O)[O-])ccc1Cl)c1cccs1,–,inactive: -9.28%
O=C(Nc1cccc(C(F)(F)F)c1)C1Cc2c(-c3cccc(F)c3)ccnc2O1 (stereo unspecified),"inconclusive [inhibitor, single point]",–
CC(C)(C(=O)c1cccnc1)c1cccnc1,inactive,–
O=C(Nc1ccc(Cl)cc1)N1CCCN(c2ccc(C(F)(F)F)cc2[N+](=O)[O-])CC1,"inconclusive [inhibitor, single point]",–
CC(NC(=O)CSc1cccc(C(F)(F)F)c1)c1ccccc1 (stereo unspecified),"inconclusive [inhibitor, single point]",–
